# Laboratory results as given in PubChem BioAssay AID2546 (National Center for Advancing Translational Sciences (NCATS), 2010).
# The whole screen tested about 310,000 compounds, of which about 11,000 (3.5%) were called active. Inconclusive means that the source gave no clear call. Such entries were picked first, then a sample of the others. Calls come from the whole dose curve; as a rule, active = well fitted inhibition curve with a large enough effect; inconclusive = small, poorly fitted or top-dose-only effect, or effect the other way; inactive = flat fitted curve, though single readings scatter. Potencies of inconclusive entries are left out as doubtful fits.
# Assay: VP16 counterscreen qHTS for inhibitors of ROR gamma transcriptional activity;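 note: Gal4-VP16 expression switched on by copper sulfate through the metallothionein promoter; nearly all actives have a fitted effect of over 50% in size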
# Conditions: Drosophila S2 Gal4-VP16 UAS-luciferase, luminescence, 20 h; activity, negative = inhibition: at 53.6 µM (top of the series)
# % is set by controls: 0 for no effect and ±100 for the full control effect; potency is the fitted concentration of half-maximal effect; tags give direction and shape of the fitted curve.
SMILES,Potency,"activity, negative = inhibition"
COc1cc(NC(=O)/C=C/c2ccccc2)c(C(=O)O)cc1OC,inactive,
NC(=S)N/N=C/c1ccc(-c2cc(Cl)cc(Cl)c2)o1,active: 3.98 µM,
COc1cccc(/C=C2\SC(=S)N(N3C(=O)CCCC3=O)C2=O)c1,inactive,
Cn1nc(-c2ccc(Cl)cc2)c2cc(C(=O)N3CCN(c4ccccn4)CC3)sc21,active: 12.6 µM,
COc1ccc(C2CC(=O)Oc3cc(C)c(Cl)c(C)c32)cc1 (stereo not given),active: 31.6 µM,
COc1ccccc1CNC(=O)c1ccoc1C,inactive,
CCc1ccc(NC(=S)NC(=O)CC(C)C)cc1,active: 1 µM,
Fc1ccc(SCCc2ccccn2)cc1,"inconclusive [activator, single point]",
CCC(=O)Nc1ccc(C(=O)NNC(=O)C(c2ccccc2)c2ccccc2)cc1,"inconclusive [inhibitor, single point]",
COC(=O)[C@H](Cc1ccccc1)NC(=O)O[C@@H]1C(=O)c2cc(OC)ccc2O[C@H]1c1cccc(OC)c1,inactive,
CCOC(=O)OC(C)OC(=O)C1N2C(=O)C(NC(=O)C(N)c3ccccc3)C2SC1(C)C (stereo not given),"inconclusive [inhibitor, partial curve]",
Cc1ccc(C2CC(C(F)(F)F)n3nc(C(=O)NCc4c(C)nn(C)c4C)c(Cl)c3N2)cc1 (stereo not given),"inconclusive [inhibitor, single point]",
CCOC(=O)c1c(C)n(C)c2ccc(OCC(O)CN3CCN(C)CC3)cc12 (stereo not given),inactive,
O=C(COC(=O)c1ccc(Oc2ccccc2)cc1)Nc1nnc(-c2ccccc2)o1,active: 5.62 µM,
CCc1cccc(NS(=O)(=O)c2ccc3c(c2)N(C)CCO3)c1,"inconclusive [inhibitor, single point]",
Cc1c(O)ccc(/C=N/Nc2nc(-c3cccnc3)nc3ccccc23)c1O,active: 17.8 µM,
O=c1cc(-c2ccccc2)[nH]n1-c1ccc([N+](=O)[O-])cc1,"inconclusive [inhibitor, single point]",
Cc1ccc(NC(=O)CSc2nccn2C)cc1F,"inconclusive [inhibitor, single point]",
CCOc1ccc2nc(NC(=O)CS(=O)(=O)c3ccc(C)cc3)sc2c1,"inconclusive [inhibitor, single point]",
Cc1ccc(CNC(=S)Nc2cc(C)ccc2OC(F)F)cc1,"inconclusive [inhibitor, single point]",
COc1ccccc1N1C(=O)CC(Sc2n[nH]c(-c3cccc(C)c3)n2)C1=O (stereo not given),active: 5.01 µM,
N#Cc1c(NC(=O)C2CCCO2)sc2c1CCCCC2 (stereo not given),"inconclusive [activator, partial curve, poor fit]",
CC1(C)CC(=O)C2=C(C1)NC1=C(C(=O)c3ccccc31)C2c1ccc(O)cc1 (stereo not given),"inconclusive [activator, single point]",
O=C(N/N=C1\C/C(=N\NC(=O)c2ccncc2)c2ccccc21)c1ccncc1,"inconclusive [inhibitor, single point]",
O=C(CSc1nc2c([nH]c3ccccc32)c(=O)n1-c1ccc(F)cc1)NCc1ccco1,"inconclusive [inhibitor, full curve]",

SMILES,Potency,"activity, negative = inhibition"
O=C(NCCn1cc(SCC(=O)N2CCOCC2)c2ccccc21)c1c(F)cccc1F,inactive,
COC(=O)c1ccc(NC(=O)c2cccc(Cl)c2)o1,"inconclusive [inhibitor, single point]",
O=C(c1ccc2c3c(cccc13)CC2)C1CCCN(Cc2ccccn2)C1 (stereo not given),active: 11.2 µM,
COc1ccc(N2Nc3n[nH]c(N)c3N2)cc1,"inconclusive [activator, partial curve]",
O=C(N/N=C/c1cc(Cl)cc([N+](=O)[O-])c1O)c1ccccc1NS(=O)(=O)c1cccs1,active: 10 µM,
Cc1ccc(N(CC(=O)Nc2cc(C)cc(C)c2)S(=O)(=O)c2c(C)noc2C)cc1,active: 11.2 µM,
Cc1cccc(C)c1NC(=O)c1c[nH]c2ccccc12,"inconclusive [activator, single point]",
CCOc1ccccc1CN1C(=O)c2ccccc2C1C(=O)NCC1CCCO1 (stereo not given),"inconclusive [activator, partial curve, poor fit]",
Cc1ccc(Nc2nc3ccccc3[nH]2)nc1,active: 5.01 µM,
CC(=O)c1cccc(NC(=O)c2ccoc2C)c1,inactive,
C=C(C)c1cccc(C(C)(C)NC(=O)Nc2ccc(OC)cc2)c1,"inconclusive [inhibitor, partial curve, poor fit]",
CC1(C(=O)NCC2CC2)C=CC2(CCCCC2)N1C(=O)c1ccccc1 (stereo not given),inactive,
CCCCCCc1cc2cc(S(=O)(=O)c3ccc(F)c(Cl)c3)c(=O)oc2cc1O,active: 3.98 µM,
CC(C)(C)N(Cc1ccccc1)C(=O)COC(=O)Cn1cnc2ccccc2c1=O,inactive,
COc1ccc(N(C(C)C(=O)N/N=C/c2ccc(OCC(C)C)cc2)S(C)(=O)=O)cc1 (stereo not given),"inconclusive [activator, single point]",
O=c1[nH]nc(Sc2ncnc3sccc23)n1CCc1ccccc1,"inconclusive [inhibitor, single point]",
COc1cccc(C(=O)CSc2nnc(COc3cccc4cccnc34)o2)c1,"inconclusive [inhibitor, single point]",
CC(C)c1ccc(NC(=O)c2ccc3c(c2)C(=O)N(Cc2cccnc2)C3=O)cc1,active: 17.8 µM,
Fc1ccc(-c2ccnc(=S)[nH]2)cc1,active: 2.82 µM,
COc1cccc(NC(=O)Nc2cccc(C(=O)O)c2)c1,"inconclusive [inhibitor, single point]",
CCOC(=O)Cn1c(-c2ccccc2)cc(SC)c(C#N)c1=O,inactive,
C=CCSC(=C(C#N)C#N)c1cc2c([nH]1)CCCC2,"inconclusive [inhibitor, single point]",
CCOC(=O)C(=Cc1cn(C)c2ccc(S(=O)(=O)N(C)C)cc12)C(=O)OCC,"inconclusive [activator, single point]",
CSc1nc(C2CC2)cc(-c2cccs2)c1C#N,inactive,
CCC(c1nnc(SCC(=O)Nc2c(F)cccc2F)n1Cc1ccccc1)N(C)C (stereo not given),"inconclusive [inhibitor, single point]",

SMILES,Potency,"activity, negative = inhibition"
N#C/C(=C\c1ccc(OC(=O)c2cccs2)cc1)c1nc2ccccc2[nH]1,"inconclusive [inhibitor, single point]",
O=C(CN1c2ccccc2Sc2ccccc21)NNC(=S)Nc1ccc(Cl)cc1,"inconclusive [inhibitor, partial curve]",
Cc1onc(-c2ccccc2)c1C(=O)NC(=S)Nc1sc2c(c1C#N)CCC(C)C2 (stereo not given),"inconclusive [inhibitor, single point]",
CCOC(=O)CSc1nc2ccc(N3CCOCC3)cc2c(=O)n1Cc1ccccc1,"inconclusive [inhibitor, single point]",
CN1/C(=C\C(=S)Nc2ccccc2)C(C)(C)c2ccccc21,"inconclusive [inhibitor, single point]",
COc1ccc2c(c1)O[C@H](c1ccc3c(c1)OCO3)[C@@H](OC(=O)NCCOc1ccccc1)C2=O,inactive,
Oc1ccc(-c2csc(Nc3ccccn3)n2)cc1,inactive,
Cc1ccc2oc(-c3cccc(NC(=O)C4CCCO4)c3)nc2c1 (stereo not given),"inconclusive [activator, partial curve]",
CCOC(=O)c1c(C)[nH]c(C(=O)CSc2nnc(Nc3ccccc3F)s2)c1C,inactive,
CNC(=O)c1c(O)c2cccc3c2n(c1=O)CCC3,"inconclusive [inhibitor, single point]",
NC(=O)c1ccsc1NC(=O)COC(=O)Cc1cccc2ccccc12,active: 4.47 µM,
Cn1nc(C(F)(F)F)c(-c2cccc(C(F)(F)F)c2)c1NC(=O)CSCC(=O)O,"inconclusive [inhibitor, single point]",
CNC(=O)Cn1ncc2c(C)n(Cc3ccc(C)cc3)c(C)c2c1=O,inactive,
O=C(Cc1n[nH]c(=O)c2ccccc12)NCc1ccccc1,inactive,
CC(=O)OCCNc1cc(SCc2ccco2)c2nonc2c1[N+](=O)[O-],"inconclusive [inhibitor, partial curve, poor fit]",
C=C/C1=C/Cc2ccccc2C(C[N+](=O)[O-])C(C(=O)OC)(C(=O)OC)C1 (stereo not given),"inconclusive [inhibitor, single point]",
COc1ccc2nc(C)cc(SCC(=O)N/N=C/c3ccc(O)cc3O)c2c1,"inconclusive [inhibitor, single point]",
O=[N+]([O-])c1nn(-c2ccc3c(c2)OCCO3)n(O)c1=Nc1ccc(Cl)cc1,inactive,
C=CCn1c(C)cc(C(=O)CN2C(=O)c3ccccc3C2=O)c1C,"inconclusive [inhibitor, single point]",
CCCc1nc(SCC(=O)Nc2nccs2)c2ccccc2n1,inactive,
CN(C)CCCN1C(=O)c2cc3ccccc3cc2C1=O,inactive,
Cc1ccccc1OC1CCN(C(=O)C2CCC(=O)N(C3CCCC3)C2)CC1 (stereo not given),inactive,
S=c1[nH]nc(CSc2nc3ccccc3s2)n1C1CCCCC1,active: 1.26 µM,
Cc1cccc(C)c1OCCNC(=O)c1ccc2ccccc2n1,,inactive: 16.3% [at 10 µM]
CC(=O)N=c1c(C#N)cc2c(=O)n3cccc(C)c3nc2n1CCCOC(C)C,"inconclusive [inhibitor, partial curve, poor fit]",
